The supplement of paper PMC3334620
Over roughly 33,000 sequences, “E-score (-0.5 to 0.5)” has its median near -0.021; the highest 2% begin near 0.32. Some of the results follow.

These sequences were tested against T1, Zap1 (UniProt P47043) (assay: PBM E-score (8-mer binding enrichment) (E-score (-0.5 to 0.5)); higher = stronger / more preferred TF binding; most listed sequences are background and not binding sites). Settings: protein concentration: 200 nM; construct: GST-full length.
T1 sequence: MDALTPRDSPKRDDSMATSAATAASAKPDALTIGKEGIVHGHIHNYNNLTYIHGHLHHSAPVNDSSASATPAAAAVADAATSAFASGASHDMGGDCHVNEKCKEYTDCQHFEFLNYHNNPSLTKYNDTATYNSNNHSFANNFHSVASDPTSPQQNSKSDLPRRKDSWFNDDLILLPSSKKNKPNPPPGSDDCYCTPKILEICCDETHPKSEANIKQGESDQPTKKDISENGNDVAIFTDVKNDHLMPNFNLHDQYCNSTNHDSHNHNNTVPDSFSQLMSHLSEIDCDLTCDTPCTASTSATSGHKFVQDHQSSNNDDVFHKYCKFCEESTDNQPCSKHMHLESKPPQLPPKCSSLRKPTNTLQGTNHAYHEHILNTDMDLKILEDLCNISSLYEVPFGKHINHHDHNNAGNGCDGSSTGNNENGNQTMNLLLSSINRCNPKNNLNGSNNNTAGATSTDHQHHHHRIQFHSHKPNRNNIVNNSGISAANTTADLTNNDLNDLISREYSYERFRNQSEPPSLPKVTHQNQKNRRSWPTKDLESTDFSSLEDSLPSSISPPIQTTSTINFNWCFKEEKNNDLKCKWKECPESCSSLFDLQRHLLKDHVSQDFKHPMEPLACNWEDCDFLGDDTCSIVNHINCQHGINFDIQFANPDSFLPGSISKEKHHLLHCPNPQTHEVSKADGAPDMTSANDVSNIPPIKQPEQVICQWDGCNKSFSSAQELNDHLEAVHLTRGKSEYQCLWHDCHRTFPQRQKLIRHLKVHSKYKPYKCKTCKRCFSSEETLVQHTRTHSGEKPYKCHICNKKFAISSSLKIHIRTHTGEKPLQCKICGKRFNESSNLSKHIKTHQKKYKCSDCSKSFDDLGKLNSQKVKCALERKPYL
Method in brief: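 GST-tagged yeast TFs (full-length or DNA-binding domain) were made by PURExpress in vitro transcription/translation and applied at about 100-200 nM to universal all-10-mer Agilent arrays. The arrays were made double-stranded by primer extension, on fresh or once-stripped slides. Bound protein was detected with fluorescent anti-GST, and scans were normalised with masliner. Each ungapped eight-base word, pooled with its reverse complement, received an E-score (modified Wilcoxon-Mann-Whitney statistic) from the Universal PBM Analysis Suite.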

Row | Sequence | PBM E-score
1 | GAGGTCGA | 0.0415
2 | GTGGATAA | 0.0423
3 | CTTTCATC | 0.00048
4 | TCATACGA | 0.0351
5 | CGCGGCCC | 0.2
6 | GAGCTGAC | 0.122
7 | CGGAAGAC | 0.0464
8 | CTTTAGCA | -0.201
9 | GCCTTAAA | 0.163
10 | ACATGTGG | 0.0607
11 | AAGTTGGA | 0.00097
12 | CGGTTTAA | 0.0515
13 | CGTTAGGA | 0.0403
14 | CATCAGAC | -0.173
15 | CACTATTA | 0.149
16 | ACGCCCAT | 0.04
17 | ACCCATGG | 0.281
18 | CGATATTA | 0.127
19 | GCAGAAAA | 0.223
20 | CCATGAGG | 0.116
21 | ATTACTGC | -0.0127
22 | GTAGAGAA | 0.0312
23 | AGCTCCCA | -0.116
24 | ACCGTGCA | 0.142
25 | AACATCTA | -0.0958

Row | Sequence | PBM E-score
26 | AAAAACTC | 0.113
27 | CCAGAATA | 0.222
28 | CCAACTAA | 0.0594
29 | CACGGTCC | -0.289
30 | CCACTTCA | 0.00735
31 | ACCCTTCC | 0.281
32 | CAGATTCA | -0.274
33 | GATTCTGC | -0.0686
34 | GTGGTAAA | -0.0285
35 | ATCAAACG | -0.0558
36 | GCGATCGA | -0.0858
37 | ACTTCGGC | -0.103
38 | ATTGAAAA | 0.208
39 | GCTAATTA | -0.00419
40 | ATCCCGAT | -0.0921
41 | CCCAACAC | -0.121
42 | ACTATAAT | 0.188
43 | CACTATGA | -0.108
44 | AGGAAATC | -0.117
45 | ACGTTGCG | -0.199
46 | CCACAAAA | 0.237
47 | CCTGTAAC | 0.209
48 | GCCATAGC | -0.125
49 | AAATCATC | -0.193
50 | AGACTCTG | 0.0788

Row | Sequence | PBM E-score
51 | AAAAATGT | 0.0172
52 | AGAACAAG | 0.16
53 | AATGATCC | -0.0244
54 | AAGAGGCA | -0.0754
55 | AAGTAGCT | -0.276
56 | GTTGTATA | 0.117
57 | CACGTGCC | -0.0659
58 | CTGTTTCC | -0.193
59 | AGTTAGAG | -0.135
60 | CCAAGCAA | -0.119
61 | AGAATTGA | 0.0335
62 | GTTAGTGA | 0.00632
63 | ACGTGTGC | -0.235
64 | AAAGTCGG | -0.17
65 | GACGGAAC | -0.159
66 | TTATCCAA | 0.207
67 | AGGTCTGA | -0.0295
68 | AGCAGTGG | -0.0878
69 | CTGCGACC | 0.117
70 | AACGCCGA | -0.15
71 | AGCGGAAC | -0.134
72 | CTAGCTTA | -0.0605
73 | GGACAATA | 0.148
74 | ATAGCGGA | -0.166
75 | ACTCGAGG | 0.0452

Row | Sequence | PBM E-score
76 | AGAAAAAT | 0.165
77 | CCTTGCCG | -0.2
78 | GACAGCGC | -0.171
79 | AATGGGCC | 0.0184
80 | ATCACAGC | -0.0564
81 | CCCTGATC | -0.0406
82 | CGAGAAGC | -0.229
83 | CCCATCAC | 0.0418
84 | CTGTCATA | -0.0292
85 | ACCGGTCG | 0.0185
86 | CCTGCTAC | -0.0218
87 | ACTCCGCA | -0.0707
88 | ACAGAACA | 0.162
89 | TAGGCGCA | -0.162
90 | CCATGGCA | 0.133
91 | GCGGAGTA | -0.0663
92 | ACCCGGGA | 0.206
93 | CACAATCG | -0.0767
94 | CCGCTAAC | 0.219
95 | GAAACAGC | -0.189
96 | AGGTTACT | 0.457
97 | CAGCGGAA | -0.224
98 | GTCAGAAC | 0.0394
99 | CAATATCA | 0.0291
100 | GACGATTA | -0.0471

Row | Sequence | PBM E-score
101 | CCGACCCG | -0.00013
102 | GGAGTTAC | 0.137
103 | AATCACAC | 0.0533
104 | CACCCCGG | 0.116
105 | GAAGACGC | -0.124
106 | CTATCTTA | 0.0332
107 | GCTAAATA | -0.038
108 | CCGGGTGC | 0.0477
109 | CAAATGTA | 0.142
110 | CTCAACAG | -0.0658
111 | GAGTTTGC | -0.106
112 | ATGGTGCG | 0.0412
113 | ACGGCCCT | 0.00462
114 | CTAAGCTC | -0.082
115 | CACTTAAG | 0.0831
116 | GCCCATGA | 0.0195
117 | GCACGCCC | -0.00678
118 | AATCATGT | 0.0175
119 | GGTCCTCA | 0.0332
120 | AATGGCAG | 0.0472
121 | AGGTGACA | 0.0888
122 | ACATAACA | 0.132
123 | ATGCCTTA | -0.136
124 | ATATTTGA | -0.071
125 | AGTCACCA | 0.0389

Row | Sequence | PBM E-score
126 | CCCGTCTA | -0.0803
127 | GAGGGGAC | -0.0389
128 | CATTACCG | 0.0828
129 | CGATTAAC | 0.124
130 | ACACATCA | -0.158
131 | ACAGACCG | -0.056
132 | TCTGGACA | -0.0407
133 | ACTGTCTC | -0.258
134 | ACTTAAGT | 0.0877
135 | ACAGAGCG | -0.182
136 | ATTGTGCG | -0.0998
137 | AGCTTCGA | -0.0403
138 | AGGATTCG | 0.0176
139 | CATGAGTA | -0.147
140 | ATTGCCGA | -0.283
141 | CTATATAG | 0.0438
142 | AGCCTGCA | -0.237
143 | CCAATTTA | 0.159
144 | CTTCCCCA | -0.0454
145 | AGAATGGA | -0.0517
146 | CTAAAGTA | -0.094
147 | GGTGTACA | 0.0255
148 | AACGCCTC | -0.0586
149 | CCAGTAAC | 0.245
150 | CGCTTATC | -0.136

Row | Sequence | PBM E-score
151 | ACAACCTC | 0.31
152 | ACCCGTAG | 0.107
153 | ATCGCAAG | 0.104
154 | CAGGGGCG | -0.132
155 | CTGTGTGA | -0.0255
156 | CATTGCGG | 0.0854
157 | AACGACCT | 0.211
158 | TTCATGAA | 0.157
159 | GCGTGTGA | -0.0561
160 | CAGCGCGA | -0.11
161 | GGAGTAAC | 0.199
162 | AGCGATCA | -0.104
163 | CGCTACCG | 0.0227
164 | AGCATAGC | -0.28
165 | GGTCTCTA | 0.101
166 | AAAGCAGG | -0.075
167 | GGTTGGTA | 0.283
168 | GCATCCCA | -0.141
169 | CATGGGGG | -0.138
170 | TGCCGGCA | -0.204
171 | GCCCCGAA | 0.0199
172 | CTATGATA | 0.00378
173 | CAGCTCTA | -0.265
174 | AAGCTCCT | -0.269
175 | AAAAATCG | -0.144

Row | Sequence | PBM E-score
176 | AAACGGGA | -0.191
177 | GTGCAGGA | -0.245
178 | AAGTTCCG | -0.0642
179 | TACTGAGA | -0.0902
180 | ACTTCTTA | 0.0552
181 | GTCGTTTA | 0.225
182 | ACCCCAGT | 0.25
183 | AGATGATG | -0.0346
184 | CAGGTAGA | 0.193
185 | CAGGAAGG | -0.271
186 | CTTCCATA | -0.188
187 | GGCCGTTA | 0.168
188 | GGGGGGCA | -0.433
189 | TGACCCCA | 0.31
190 | AGTTAACG | 0.157
191 | ACGGGCTG | -0.137
192 | GGCTAGCC | -0.248
193 | TCGGTAGA | 0.0519
194 | CAGTCTAA | 0.00889
195 | AAAATCTT | -0.107
196 | AGAGGGAG | -0.185
197 | ACAGTGAG | -0.0155
198 | ACCGGCAC | 0.0526
199 | CTTAGACC | -0.0476
200 | GCTCACTA | 0.00041

Row | Sequence | PBM E-score
201 | GGGCATTA | -0.0349
202 | CTTAGCTC | -0.15
203 | AATTACCT | 0.253
204 | CCTTCCAC | -0.209
205 | CCTCTTCC | -0.127
206 | ACTTGTAC | -0.0795
207 | GACGAACC | 0.00791
208 | ATGGTAGC | 0.041
209 | AGGGGCTC | -0.134
210 | GCCCAGTA | -0.075
211 | TACCCTCA | 0.312
212 | AAGGTACC | 0.445
213 | GTTACAAA | 0.343
214 | CCAGCGCA | -0.348
215 | TAAGCGTA | -0.135
216 | CGCGGTTC | 0.181
217 | AGGAGGCG | -0.398
218 | GAGGCACA | -0.142
219 | CTATCGGC | -0.1
